Consider three molecules from patent publication US20260193307A1 (ASKGENE PHARMA, published 2026).

The chains are these.
B1: K3-30F7 scFv-Fc (JR8.144.1) (Fc fusion)
scFv: [about 100 residues not listed]PWTFGQGTKVEIKAGGGGSGGGGSGGGGSQVQLVESGGGVVQPGRSLRLSCAASGFTFSTYGMHWVRQAPGKGLEWVAVISHEGNNKYYADSVKGRFTISRDNSKNTLYLQMNSLRAEDTAVYYCARDWFYGRARFDPWGQGTLVTVSS
notes: Purified scFv-Fc homodimer; also called JR8.144.1 K3-30F7; not shown: Human Fc domain of the scFv-Fc homodimer and its linker to the scFv
B2: K1-69G3 scFv-Fc (JR8.156.5) (Fc fusion)
chain: [about 100 residues not listed]PITFGQGTKVEIKAGGGGSGGGGSGGGGSQVQLVQSGAEVKKPGSSVKVSCKASGGTFSSYGIHWVRQAPGQGLEWMGGIIPSFGITNYAQKFQGRVTITADESTSTAYMELSSLRSEDTAVYYCARYPYSFDHWGQGTLVTVSS
notes: Purified scFv-Fc homodimer; also called JR8.156.5 K1-69G3; not shown: Fc fragment (human Fc domain)
B3: K3-30F6 scFv-Fc (JR8.156.4) (Fc fusion)
chain: [about 100 residues not listed]AGGGGSGGGGSGGGGSEVQLLESGGGLVQPGGSLRLSCAASGFTFSDYAMSWVRQAPGKGLELVSVISSGGGATYYADSVKGRFTISRDNSKNTLYLQMNSLRAEDTAVYYCARGPRTYDVWGQGTLVTVSS
notes: Purified scFv-Fc homodimer; also called JR8.156.4 K3-30F6; not shown: Fc fragment (human Fc domain)

Where only a bound is given, the exact number is not on record here.

For this experiment, the target named is IL-2 (UniProt P60568). The experiment is described as follows: ForteBio (BLI), purified scFv-Fc to IL-2. (In general: In BLI a coated tip is dipped into the sample, and binding shifts an interference pattern.)
Sequence of IL-2 (P60568 21-153 limits assumed): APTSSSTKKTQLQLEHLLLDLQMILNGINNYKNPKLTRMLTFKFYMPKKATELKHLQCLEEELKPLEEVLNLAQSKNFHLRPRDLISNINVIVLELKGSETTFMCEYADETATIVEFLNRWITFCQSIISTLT
Usually Kd stands for the equilibrium constant for the complex coming apart. Molecule B1 gave a Kd of less than 1 pM and a Response of 0.3.

B2 gave a Kd of less than 1 pM and a Response of 0.6.

Molecule B3 registered a Kd of less than 1 pM and a Response of 3.9.
